Targets include SHP2 C-SH2 domain E139D; SHP2 N-SH2 domain L43F; SHP2 N-SH2 domain T42A; SHP2 N-SH2 domain T52S.
Experiment in all cases: enrichment score (SH2-bound / input frequency) (ratio); bacterial display of known human phosphotyrosine sites (pTyr-Var adds point mutants) read by sequencing; higher = stronger binding; tyrosines were phosphorylated by kinases first
The target of assay [1] is SHP2 C-SH2 domain wild-type.
Assay [2] addresses SHP2 N-SH2 domain wild-type.

The list shows a part of the results. No stated cut-off is given here; in the data, active = 3.2 or more and inactive = the rest. Most of these values are background signal.
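Further: displayed peptides selected on beads carrying the immobilized SH2 domain, with library peptides lacking any tyrosine serving as negative controls.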

Regarding VPVDPATYGQFYGGD [GELS_HUMAN_465], the enrichment score in the assay with SHP2 C-SH2 domain E139D (peptide library: Human pTyr) was inactive: 0.582; in assay [1] (peptide library: Human pTyr), inactive: 0.574; in the assay with SHP2 N-SH2 domain L43F (peptide library: Human pTyr) it was inactive: 0.664; in the assay with SHP2 N-SH2 domain T42A (peptide library: Human pTyr) it was inactive: 0.534; with SHP2 N-SH2 domain T52S (peptide library: Human pTyr), inactive: 0.593; in assay [2] (peptide library: Human pTyr) it was inactive: 0.754.
Take YFLQLLKYIPPKAKS [AGTR1_HUMAN_319]: the enrichment score was active: 3.34 in the assay with SHP2 C-SH2 domain E139D (peptide library: Human pTyr); active: 3.71 in assay [1] (peptide library: Human pTyr); active: 4.54 in the assay with SHP2 N-SH2 domain L43F (peptide library: Human pTyr); active: 3.36 in the assay with SHP2 N-SH2 domain T42A (peptide library: Human pTyr); active: 4.07 with SHP2 N-SH2 domain T52S (peptide library: Human pTyr); active: 5.49 in assay [2] (peptide library: Human pTyr).
With ATQDNYVLEVR [PTPRZ1_Y2179_D2178N], the enrichment score with SHP2 C-SH2 domain E139D (peptide library: pTyr-Var) was inactive: 0.869; in assay [1] (peptide library: pTyr-Var) it was inactive: 0.808; in the assay with SHP2 N-SH2 domain L43F (peptide library: pTyr-Var), inactive: 0.883; in the assay with SHP2 N-SH2 domain T42A (peptide library: pTyr-Var), inactive: 0.652; with SHP2 N-SH2 domain T52S (peptide library: pTyr-Var), inactive: 0.747; in assay [2] (peptide library: pTyr-Var) it was inactive: 0.889.
As to KDCGSQKYAYFNGCS [GJA1_HUMAN_265], the enrichment score with SHP2 C-SH2 domain E139D (peptide library: Human pTyr) is inactive: 1.21; in assay [1] (peptide library: Human pTyr), inactive: 1.72; in the assay with SHP2 N-SH2 domain L43F (peptide library: Human pTyr) it was inactive: 1.41; in the assay with SHP2 N-SH2 domain T42A (peptide library: Human pTyr), inactive: 1.07; with SHP2 N-SH2 domain T52S (peptide library: Human pTyr), inactive: 1.25; in assay [2] (peptide library: Human pTyr), inactive: 1.47.
On to MKRVGFQYEGTYKWV [G6PD_HUMAN_503], for which the enrichment score in the assay with SHP2 C-SH2 domain E139D (peptide library: Human pTyr) is inactive: 1.86; in assay [1] (peptide library: Human pTyr), inactive: 1.69; with SHP2 N-SH2 domain L43F (peptide library: Human pTyr) it was inactive: 1.77; with SHP2 N-SH2 domain T42A (peptide library: Human pTyr), inactive: 1.81; with SHP2 N-SH2 domain T52S (peptide library: Human pTyr), inactive: 1.7; in assay [2] (peptide library: Human pTyr) it was inactive: 2.09.
In the case of TDGLGLSYLSSHIAN [GELS_HUMAN_409], the enrichment score was inactive: 1.06 in the assay with SHP2 C-SH2 domain E139D (peptide library: Human pTyr); inactive: 0.913 in assay [1] (peptide library: Human pTyr); inactive: 0.91 with SHP2 N-SH2 domain L43F (peptide library: Human pTyr); inactive: 0.969 in the assay with SHP2 N-SH2 domain T42A (peptide library: Human pTyr); inactive: 1.01 with SHP2 N-SH2 domain T52S (peptide library: Human pTyr); inactive: 1.05 in assay [2] (peptide library: Human pTyr).
With DVSLDRGYTSDSEVA [GBF1_HUMAN_1316_YA], the enrichment score with SHP2 C-SH2 domain E139D (peptide library: Human pTyr) was inactive: 0.823; in assay [1] (peptide library: Human pTyr) it was inactive: 0.558; with SHP2 N-SH2 domain L43F (peptide library: Human pTyr), inactive: 0.658; with SHP2 N-SH2 domain T42A (peptide library: Human pTyr) it was inactive: 0.672; with SHP2 N-SH2 domain T52S (peptide library: Human pTyr) it was inactive: 0.848; in assay [2] (peptide library: Human pTyr), inactive: 0.702.
Turning to EPRLSAEYEKVELPS [AKA12_HUMAN_374], the enrichment score with SHP2 C-SH2 domain E139D (peptide library: Human pTyr) was inactive: 0.565; in assay [1] (peptide library: Human pTyr), inactive: 0.582; in the assay with SHP2 N-SH2 domain L43F (peptide library: Human pTyr), inactive: 0.676; in the assay with SHP2 N-SH2 domain T42A (peptide library: Human pTyr), inactive: 0.715; in the assay with SHP2 N-SH2 domain T52S (peptide library: Human pTyr), inactive: 0.757; in assay [2] (peptide library: Human pTyr), inactive: 0.604.
AQDKAESYSLISMKG [AKAP3_HUMAN_404]: the enrichment score with SHP2 C-SH2 domain E139D (peptide library: Human pTyr) is inactive: 0.627; in assay [1] (peptide library: Human pTyr), inactive: 1.58; with SHP2 N-SH2 domain L43F (peptide library: Human pTyr), inactive: 0.624; with SHP2 N-SH2 domain T42A (peptide library: Human pTyr) it was inactive: 0.6; with SHP2 N-SH2 domain T52S (peptide library: Human pTyr), inactive: 0.679; in assay [2] (peptide library: Human pTyr), inactive: 0.515.
Turning to GNSAEEYYENVPCKA [GCSAM_HUMAN_107], the enrichment score with SHP2 C-SH2 domain E139D (peptide library: Human pTyr) is inactive: 1.07; in assay [1] (peptide library: Human pTyr), inactive: 0.865; with SHP2 N-SH2 domain L43F (peptide library: Human pTyr), inactive: 0.834; with SHP2 N-SH2 domain T42A (peptide library: Human pTyr), inactive: 1.02; in the assay with SHP2 N-SH2 domain T52S (peptide library: Human pTyr), inactive: 0.946; in assay [2] (peptide library: Human pTyr), inactive: 0.899.
Turning to KQATTNVYQVQTGSE [GIT2_HUMAN_484], the enrichment score was inactive: 0.826 in the assay with SHP2 C-SH2 domain E139D (peptide library: Human pTyr); inactive: 0.637 in assay [1] (peptide library: Human pTyr); inactive: 0.811 with SHP2 N-SH2 domain L43F (peptide library: Human pTyr); inactive: 0.699 with SHP2 N-SH2 domain T42A (peptide library: Human pTyr); inactive: 0.657 with SHP2 N-SH2 domain T52S (peptide library: Human pTyr); inactive: 0.633 in assay [2] (peptide library: Human pTyr).
On to ALGGKAAYRTSPRLK [GELS_HUMAN_651], for which the enrichment score in the assay with SHP2 C-SH2 domain E139D (peptide library: Human pTyr) is inactive: 1.28; in assay [1] (peptide library: Human pTyr), inactive: 1.46; with SHP2 N-SH2 domain L43F (peptide library: Human pTyr), inactive: 1.24; with SHP2 N-SH2 domain T42A (peptide library: Human pTyr), inactive: 1.53; with SHP2 N-SH2 domain T52S (peptide library: Human pTyr) it was inactive: 1.37; in assay [2] (peptide library: Human pTyr), inactive: 1.3.
As to DIKEPVQYFNSVEEV [GARE1_HUMAN_105], the enrichment score with SHP2 C-SH2 domain E139D (peptide library: Human pTyr) was inactive: 1.16; in assay [1] (peptide library: Human pTyr) it was inactive: 0.899; with SHP2 N-SH2 domain L43F (peptide library: Human pTyr) it was inactive: 0.858; with SHP2 N-SH2 domain T42A (peptide library: Human pTyr) it was inactive: 0.853; with SHP2 N-SH2 domain T52S (peptide library: Human pTyr) it was inactive: 1.02; in assay [2] (peptide library: Human pTyr), inactive: 1.17.
With ETDNEDVYTFKTPSN [GAB2_HUMAN_293], the enrichment score was inactive: 1.16 with SHP2 C-SH2 domain E139D (peptide library: Human pTyr); inactive: 0.865 in assay [1] (peptide library: Human pTyr); inactive: 1.03 in the assay with SHP2 N-SH2 domain L43F (peptide library: Human pTyr); inactive: 0.778 in the assay with SHP2 N-SH2 domain T42A (peptide library: Human pTyr); inactive: 1.04 in the assay with SHP2 N-SH2 domain T52S (peptide library: Human pTyr); inactive: 1.27 in assay [2] (peptide library: Human pTyr).
For GGQKSFLYSELSNKS [AKAP4_HUMAN_303], the enrichment score in the assay with SHP2 C-SH2 domain E139D (peptide library: Human pTyr) was inactive: 0.825; in assay [1] (peptide library: Human pTyr), inactive: 0.633; with SHP2 N-SH2 domain L43F (peptide library: Human pTyr), inactive: 0.693; with SHP2 N-SH2 domain T42A (peptide library: Human pTyr), inactive: 0.802; in the assay with SHP2 N-SH2 domain T52S (peptide library: Human pTyr), inactive: 1.01; in assay [2] (peptide library: Human pTyr), inactive: 0.623.
Consider MKRVGFQYEGTAKWV [G6PD_HUMAN_503_YA], for which the enrichment score is inactive: 1.1 in the assay with SHP2 C-SH2 domain E139D (peptide library: Human pTyr); inactive: 0.985 in assay [1] (peptide library: Human pTyr); inactive: 1.16 in the assay with SHP2 N-SH2 domain L43F (peptide library: Human pTyr); inactive: 1.2 with SHP2 N-SH2 domain T42A (peptide library: Human pTyr); inactive: 1 in the assay with SHP2 N-SH2 domain T52S (peptide library: Human pTyr); inactive: 1.36 in assay [2] (peptide library: Human pTyr).
As for ELDSKLNYKPPPQKS [GDIR2_HUMAN_24], the enrichment score with SHP2 C-SH2 domain E139D (peptide library: Human pTyr) was inactive: 1.03; in assay [1] (peptide library: Human pTyr), inactive: 0.872; with SHP2 N-SH2 domain L43F (peptide library: Human pTyr) it was inactive: 0.941; with SHP2 N-SH2 domain T42A (peptide library: Human pTyr) it was inactive: 0.896; with SHP2 N-SH2 domain T52S (peptide library: Human pTyr) it was inactive: 0.914; in assay [2] (peptide library: Human pTyr), inactive: 1.17.
Regarding DASSQDCYDIPRAFP [GAB1_HUMAN_406], the enrichment score with SHP2 C-SH2 domain E139D (peptide library: Human pTyr) is inactive: 0.863; in assay [1] (peptide library: Human pTyr) it was inactive: 0.814; in the assay with SHP2 N-SH2 domain L43F (peptide library: Human pTyr) it was inactive: 0.862; with SHP2 N-SH2 domain T42A (peptide library: Human pTyr) it was inactive: 0.902; in the assay with SHP2 N-SH2 domain T52S (peptide library: Human pTyr) it was inactive: 0.952; in assay [2] (peptide library: Human pTyr), inactive: 0.924.
AFLQLLKYIPPKAKS [AGTR1_HUMAN_319_YA]: the enrichment score with SHP2 C-SH2 domain E139D (peptide library: Human pTyr) was active: 3.31; in assay [1] (peptide library: Human pTyr) it was active: 3.61; with SHP2 N-SH2 domain L43F (peptide library: Human pTyr) it was active: 3.48; with SHP2 N-SH2 domain T42A (peptide library: Human pTyr), active: 3.86; in the assay with SHP2 N-SH2 domain T52S (peptide library: Human pTyr) it was active: 3.49; in assay [2] (peptide library: Human pTyr), active: 4.53.

These data come from the supplement of paper PMC10369915.
